{"source": "PubChem BioAssay AID652104", "about": "(National Center for Advancing Translational Sciences (NCATS), 2013)", "note": "The whole screen tested about 410,000 compounds, of which about 7,200 (1.8%) were called active. The inconclusive results got no clear call from the source; some entries with a clear call stand among them for comparison. Calls follow the shape of the dose curve; as a rule, active = well fitted activation curve with a large enough effect; inconclusive = small, poorly fitted or top-dose-only effect, or another doubt; inactive = no such curve, though single readings can be large or run the other way. No potency is given beside an inconclusive call; the fits are too rough. Potency is read from the fitted curve at half-maximal effect; tags tell the direction and shape of the fitted curve."}
{"assay": "qHTS of TDP-43 Inhibitors; also: nearly all actives have a fitted effect of over 50% in size; as to growth rescue (activation): % of control where 0% means no effect", "details": "TDP-43 expressing yeast growth rescue, BacTiter-Glo, 24 h; growth rescue (activation): at 46.1 µM (top of the series) unless noted", "method_in_brief": "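Yeast cells expressing TDP-43 under galactose induction are exposed to compounds for 24 hr at 30 deg C. BacTiter-Glo luminescence measures growth, so protective compounds score as activators.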"}
{"compound": "COc1ccccc1CNC(=O)c1cc(C2CC2)nc2c1cnn2C(C)C", "Potency": "inconclusive [activator, single point]"}
{"compound": "CC(C)OC(=O)c1c(NC(=O)C2c3ccccc3Oc3ccccc32)sc2c1CCCC2", "growth rescue (activation)": "inactive: 0%"}
{"compound": "Cc1ccc(C)c(N2CCN(C(=O)c3ccc4c(c3)N(Cc3ccc(F)cc3)C(=O)c3ccccc3S4=O)CC2)c1", "note": "(stereo not given)", "growth rescue (activation)": "inactive: 15.1%"}
{"compound": "CC1CCC(Nc2nc3c(-c4cccc(C(F)(F)F)c4)nnn3c3ccccc23)CC1", "note": "(stereo not given)", "growth rescue (activation)": "inactive: 9.76%"}
{"compound": "CCOC(=O)c1ccc(Cn2cnc3ccccc3c2=O)cc1", "Potency": "inconclusive [activator, partial curve]"}
{"compound": "CC(C)C[C@H](NC(=O)OC(C)(C)C)C(=O)N[C@@H](CO)[C@H](O)[C@@H]1C[C@@H]1C(=O)NC1CC1", "Potency": "inconclusive [activator, partial curve, poor fit]"}
{"compound": "CCOc1ccccc1N(CC(=O)NC1CCCCC1)C(=O)CCC(=O)Nc1nccs1", "growth rescue (activation)": "inactive: 5.74%"}
{"compound": "Cc1cc(C)n(-c2cc(C(C)(C)C)nc3c(-c4ccc(Cl)cc4)cnn23)n1", "growth rescue (activation)": "inactive: -23.3%"}
{"compound": "CCN(C(=O)CSc1nc2ccccc2[nH]1)c1ccccc1", "Potency": "inconclusive [activator, partial curve, poor fit]"}
{"compound": "COc1ccc(CNC(=O)c2cn(Cc3ccccc3OC)c(=O)s2)cc1", "Potency": "inconclusive [activator, single point]"}
{"compound": "Cc1ccc(C)c(N2CCN(S(=O)(=O)c3cccc4cccnc34)CC2)c1", "Potency": "inconclusive [activator, single point]"}
{"compound": "N#CCCN(Cc1ccccc1)C(CCc1ccccc1)C(=O)NC1CCCCC1", "note": "(stereo not given)", "Potency": "inconclusive [activator, partial curve]"}
{"compound": "COCc1nc2ccccc2n1Cc1ccccc1Br", "Potency": "active: 20 µM"}
{"compound": "CCn1nc(C)c(C(=O)Nc2cc(Oc3ccc(Cl)cc3)cc([N+](=O)[O-])c2)c1C", "Potency": "inconclusive [activator, single point]"}
{"compound": "CC1Cc2ccccc2N1C(=O)CSc1nnc(-c2ccccc2Cl)o1", "note": "(stereo not given)", "Potency": "inconclusive [activator, partial curve]"}
{"compound": "CCCCOC(=O)CCCc1ccc([N+](=O)[O-])cc1[N+](=O)[O-]", "Potency": "inconclusive [activator, partial curve]"}
{"compound": "Cc1ccccc1CN(C)CCS(=O)(=O)c1cc(Cl)ccc1Cl", "Potency": "inconclusive [activator, single point]"}
{"compound": "CC(=O)c1ccc(Nc2cc(C)nc3nc(Cc4ccc(Cl)cc4)nn23)cc1", "Potency": "inconclusive [activator, full curve]"}
{"compound": "Cc1cnc(-c2nnc(N(C)C(=O)C3CCCO3)s2)cn1", "note": "(stereo not given)", "growth rescue (activation)": "inactive: -10.4%"}
{"compound": "Cc1noc(C)c1COC(=O)/C=C/c1ccc(Cl)cc1", "Potency": "inconclusive [activator, single point]"}
{"compound": "CCC(C(=O)Nc1nc(C)c(C)s1)c1ccccc1", "note": "(stereo not given)", "Potency": "active: 17.8 µM"}
{"compound": "COc1ccccc1C(=O)OCn1nnc2ccccc2c1=O", "growth rescue (activation)": "inactive: 21.8%"}
{"compound": "Cc1ccc(-c2cc(-c3cccc(F)c3)n[nH]2)c(O)c1", "Potency": "inconclusive [activator, single point]"}
{"compound": "CC1(C)Cc2cccc(C(=O)Nc3ccc(F)cc3F)c2O1", "Potency": "active: 20 µM"}
{"compound": "Fc1ccc(-c2csc3ncnc(N4CCN(c5ccccc5)CC4)c23)cc1", "Potency": "inconclusive [activator, single point]"}
{"compound": "O=C([C@@H]1CC=C[C@@H]2CCN(C3CCCCC3)C(=O)[C@@H]21)N1CCN(c2ccccc2)CC1", "Potency": "inconclusive [activator, full curve]"}
{"compound": "COc1ccc(C2C(C(=O)N3CCN(c4ccccc4)CC3)c3ccccc3C(=O)N2C)cc1", "note": "(stereo not given)", "Potency": "inconclusive [activator, single point]"}
{"compound": "Clc1cccc(CNc2cc(-c3ccccc3)nc3nncn23)c1", "growth rescue (activation)": "inactive: 9.96%"}
{"compound": "CCc1ccccc1NC(=O)Cn1nc(C(F)(F)F)c2c1CCCC2", "Potency": "inconclusive [activator, partial curve, poor fit]"}
{"compound": "CCC(=O)Nc1nnc(SCC(=O)NCc2ccc3c(c2)OCO3)s1", "Potency": "inconclusive [activator, partial curve]"}
{"compound": "CC(CC(=O)Nc1cccc(Cl)c1)c1ccccc1", "note": "(stereo not given)", "Potency": "inconclusive [activator, single point]"}
{"compound": "O=C(Nc1cccc(Oc2ccc(C(=O)O)c(C(=O)O)c2)c1)c1ccc(-c2ccccc2)cc1", "Potency": "inconclusive [activator, single point]"}
{"compound": "Cc1ccc(S(=O)(=O)NCc2ccc3c(c2)OCO3)cc1C", "Potency": "active: 17.8 µM"}
{"compound": "Cc1cccnc1C1=NOC(Cc2ccccc2)C(=O)N1Cc1ccc(F)cc1", "note": "(stereo not given)", "Potency": "inconclusive [activator, partial curve]"}
{"compound": "CCSc1cnn(-c2ccccc2)c(=O)c1SCC", "Potency": "inconclusive [activator, single point]"}
{"compound": "CCCNC(=O)NC(=O)CSc1nc2cc(C(=O)OC)ccc2c(=O)n1-c1ccccc1", "Potency": "inconclusive [activator, single point]"}
{"compound": "Cc1cc(N)c(-n2cc3c(c2-c2ccc(Br)cc2)c(=O)n(C)c(=O)n3C)cc1C", "Potency": "inconclusive [activator, partial curve]"}
{"compound": "Cc1ccccc1Nc1nc(-c2ccccc2)c(C(=O)Nc2cccnc2)s1", "Potency": "inconclusive [activator, single point]"}
{"compound": "COc1ccc(NC(=O)C2(C)Cc3c(-c4cccc(C(F)(F)F)c4)ccnc3O2)cn1", "note": "(stereo not given)", "Potency": "inconclusive [activator, partial curve]"}
{"compound": "O=C(NC(=S)N1CCN(c2ccc(Cl)cc2[N+](=O)[O-])CC1)c1cccs1", "Potency": "inconclusive [activator, single point]"}
{"compound": "COc1cccc(CC(=O)Nc2ccc3c(c2)CCC3)c1", "Potency": "inconclusive [activator, single point]"}
{"compound": "O=C(COC(=O)C1COc2ccccc2O1)NC(=O)NC1CCCC1", "note": "(stereo not given)", "growth rescue (activation)": "inactive: -4.78%"}
{"compound": "Cc1ccc(-c2nnc(-c3cccc(NC(=O)c4cccs4)c3)o2)cc1", "growth rescue (activation)": "inactive: 0.0779%"}
{"compound": "CSc1cccc(NC(=O)CN2CCN(Cc3ccccc3C)S2(=O)=O)c1", "Potency": "inconclusive [activator, single point]"}
{"compound": "CCOC(=O)c1ccccc1NC(=O)CSc1nc(=O)[nH]c2c1CCC2", "growth rescue (activation)": "inactive: 23%"}
{"compound": "O=C(Nc1ccncc1)C1CC(=O)N(Cc2ccccc2)C1", "note": "(stereo not given)", "Potency": "inconclusive [activator, single point]"}
{"compound": "Cc1ccc(NC(=O)c2cc([N+](=O)[O-])ccc2NCc2cccnc2)cc1Cl", "growth rescue (activation)": "inactive: -3.97%"}
{"compound": "Cc1nnc2n1N=CC=C(c1ccccc1)S2", "Potency": "inconclusive [activator, single point]"}
{"compound": "CC(=O)c1ccc2c(c1)C1C=CCC1C(c1cc3c(cc1Br)OCO3)N2", "note": "(stereo not given)", "growth rescue (activation)": "inactive: 15.7%"}
{"compound": "O=C(Nc1ccc(Oc2ccccc2)cc1)c1ccco1", "Potency": "inconclusive [activator, partial curve]"}
{"compound": "O=S(=O)(NNC(=S)Nc1ccc(S(=O)(=O)Nc2ncccn2)cc1)c1ccc(Br)cc1", "Potency": "active: 3.98 µM"}
{"compound": "CN1CCSc2ccc(C(=O)NCc3cccc(F)c3)cc21", "Potency": "inconclusive [activator, full curve]"}
{"compound": "CS(=O)(=O)N(Cc1nc(-c2ccc(F)cc2)no1)c1ccccc1Cl", "Potency": "active: 22.4 µM"}
{"compound": "CCOC(=O)C1(C)CCCN(C(=O)c2c(F)ccc(C)c2F)C1", "note": "(stereo not given)", "Potency": "inconclusive [activator, partial curve]"}
{"compound": "CC(C)c1ccc(CSc2ccc(S(=O)(=O)N3CCOCC3)cn2)cc1", "Potency": "inconclusive [activator, partial curve]"}
{"compound": "O=C(c1cc2cc(Br)ccc2o1)N1CCCC1", "Potency": "inconclusive [activator, single point]"}
{"compound": "C=Cc1ccc(Cn2c(C)c(CNCCc3ccccc3C)c(C(=O)O)c2C)cc1", "growth rescue (activation)": "inactive: 17.5%"}
{"compound": "COc1ccc(CNC(=O)COC(=O)CCOc2ccccc2)cc1", "Potency": "inconclusive [activator, full curve, poor fit]"}
{"compound": "Cc1nc(NC(=O)C2CC2)sc1C(=O)Nc1ccccc1", "growth rescue (activation)": "inactive: -13.4%"}
{"compound": "OCc1ccc(N=Nc2ccccc2)cc1", "Potency": "inconclusive [activator, partial curve]"}
{"compound": "COc1ccc(-c2ccc3[nH]c4c(c3c2)CCN2C(=O)[C@@H]([C@H](C)O)[C@@H](N(C)C(=O)Nc3ccc(F)cc3)C[C@@H]42)cc1", "growth rescue (activation)": "inactive: 0%"}
{"compound": "COc1ccc(Cl)cc1NC(=O)C1CCCN(c2ncnc3c2nc2n3CCCCC2)C1", "note": "(stereo not given)", "Potency": "active: 14.1 µM"}
{"compound": "Nc1ccccc1SCC(=O)Nc1nc(-c2ccccc2)cs1", "Potency": "inconclusive [activator, full curve]"}
{"compound": "Cn1cc(S(=O)(=O)Nc2cccc(F)c2)c(=O)n(C)c1=O", "Potency": "inconclusive [activator, single point]"}
{"compound": "Cc1ccc(S(=O)(=O)CC(=O)N2CCN(c3nc4c(F)cccc4s3)CC2)cc1", "Potency": "inconclusive [activator, partial curve]"}
{"compound": "O=C(/C=C/c1c[nH]c2ccccc12)c1cccc2ccccc12", "Potency": "inconclusive [activator, partial curve]"}
{"compound": "Cc1ccc(C)c(Sc2ccc(NC(=O)CCl)cc2)c1", "Potency": "active: 8.91 µM"}
{"compound": "CCn1ncc(Br)c1C(=O)Nc1cccc(F)c1", "Potency": "inconclusive [activator, single point]"}
{"compound": "O=C1C(Nc2ccccc2)=C/C(=N/S(=O)(=O)c2cccs2)c2ccccc21", "growth rescue (activation)": "inactive: -27.9%"}
{"compound": "O=C(NCCc1ccc(F)cc1)Nc1ccc([N+](=O)[O-])cc1", "Potency": "inconclusive [activator, single point]"}
